Source: PMC5739749
Results are given in words; binding and its absence hold for the method and conditions named. In cells and extracts the contact can be indirect. Some results given as binding are weak or reduced against the parent protein; the word gives no strength. For some assays here: Where a sequence is shown, tags or fusion partners need not be part of it.

Sequences of proteins named here, by UniProt entry; tags and fusion partners are left off.
UniProt P54098: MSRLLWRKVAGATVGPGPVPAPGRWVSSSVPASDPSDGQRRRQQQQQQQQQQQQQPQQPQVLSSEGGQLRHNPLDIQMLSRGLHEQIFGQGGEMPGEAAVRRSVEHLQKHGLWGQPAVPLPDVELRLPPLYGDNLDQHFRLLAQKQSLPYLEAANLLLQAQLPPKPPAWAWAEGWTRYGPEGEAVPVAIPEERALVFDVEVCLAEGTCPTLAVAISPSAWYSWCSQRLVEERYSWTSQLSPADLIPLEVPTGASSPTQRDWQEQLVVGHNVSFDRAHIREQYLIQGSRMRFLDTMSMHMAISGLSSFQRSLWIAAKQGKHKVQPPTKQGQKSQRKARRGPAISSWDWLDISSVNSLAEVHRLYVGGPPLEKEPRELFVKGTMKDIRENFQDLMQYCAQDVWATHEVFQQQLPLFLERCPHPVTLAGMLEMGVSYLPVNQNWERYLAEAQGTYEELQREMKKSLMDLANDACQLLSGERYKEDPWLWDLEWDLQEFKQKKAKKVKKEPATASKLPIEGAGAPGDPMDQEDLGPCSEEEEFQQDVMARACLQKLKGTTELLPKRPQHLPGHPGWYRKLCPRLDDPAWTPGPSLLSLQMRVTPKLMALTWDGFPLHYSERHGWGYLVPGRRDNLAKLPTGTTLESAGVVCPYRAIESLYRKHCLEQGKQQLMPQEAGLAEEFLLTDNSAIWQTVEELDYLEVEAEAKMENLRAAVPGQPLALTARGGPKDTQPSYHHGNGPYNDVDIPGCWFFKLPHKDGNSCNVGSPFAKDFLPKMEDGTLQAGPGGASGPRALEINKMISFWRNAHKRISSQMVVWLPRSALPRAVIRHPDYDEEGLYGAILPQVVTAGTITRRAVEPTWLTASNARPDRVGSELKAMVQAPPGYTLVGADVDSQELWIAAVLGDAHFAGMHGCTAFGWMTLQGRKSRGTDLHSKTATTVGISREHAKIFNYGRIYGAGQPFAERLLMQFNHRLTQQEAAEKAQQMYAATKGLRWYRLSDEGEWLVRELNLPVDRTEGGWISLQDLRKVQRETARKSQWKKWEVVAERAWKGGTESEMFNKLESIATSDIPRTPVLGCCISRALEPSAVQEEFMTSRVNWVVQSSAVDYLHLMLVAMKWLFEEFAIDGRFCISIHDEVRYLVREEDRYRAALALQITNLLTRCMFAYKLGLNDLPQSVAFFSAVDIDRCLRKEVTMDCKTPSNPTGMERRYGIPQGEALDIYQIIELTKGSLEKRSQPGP

Assays:
Test in all cases: co-IP; 293T cells co-transfected; lysed in RIPA buffer; TTC3 immunoprecipitated by Myc antibody (9E10), POLG or Hsp70 by Flag antibody (M2); Protein G beads, 4°C; immunoblot
[1] = target: T1, Myc-tagged TTC3 fragment of 231∼650 residues (human) (UniProt P53804)
T1 sequence: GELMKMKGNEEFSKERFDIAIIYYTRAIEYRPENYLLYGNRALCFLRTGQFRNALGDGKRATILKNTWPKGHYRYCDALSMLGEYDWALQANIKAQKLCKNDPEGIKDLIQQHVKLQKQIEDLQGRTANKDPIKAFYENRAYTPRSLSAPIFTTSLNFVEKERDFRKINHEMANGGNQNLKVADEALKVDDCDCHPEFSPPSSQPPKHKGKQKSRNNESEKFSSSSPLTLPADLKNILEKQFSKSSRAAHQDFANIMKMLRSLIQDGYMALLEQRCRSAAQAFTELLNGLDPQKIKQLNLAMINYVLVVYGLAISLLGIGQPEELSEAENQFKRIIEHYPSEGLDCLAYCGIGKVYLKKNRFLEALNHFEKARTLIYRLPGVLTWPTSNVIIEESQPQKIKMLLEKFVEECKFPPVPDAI

[2] = target: Myc-tagged TTC3Δ230 (deletion of N-terminal 1∼230 residues) (human) (UniProt P53804)
[3] = target: T2, Myc-tagged TTC3 N-terminal fragment of 1∼230 residues (human) (UniProt P53804)
T2 sequence: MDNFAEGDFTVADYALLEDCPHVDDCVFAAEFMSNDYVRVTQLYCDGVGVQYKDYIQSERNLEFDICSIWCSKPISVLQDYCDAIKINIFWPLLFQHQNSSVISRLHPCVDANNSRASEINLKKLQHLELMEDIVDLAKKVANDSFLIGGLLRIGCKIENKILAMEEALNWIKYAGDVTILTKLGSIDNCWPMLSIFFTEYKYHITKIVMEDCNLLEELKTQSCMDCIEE

[4] = target: T3, Myc-tagged TTC3Δ650 (TTC3 that lacks the N-terminal 1∼650 residues) (human) (UniProt P53804)
T3 sequence: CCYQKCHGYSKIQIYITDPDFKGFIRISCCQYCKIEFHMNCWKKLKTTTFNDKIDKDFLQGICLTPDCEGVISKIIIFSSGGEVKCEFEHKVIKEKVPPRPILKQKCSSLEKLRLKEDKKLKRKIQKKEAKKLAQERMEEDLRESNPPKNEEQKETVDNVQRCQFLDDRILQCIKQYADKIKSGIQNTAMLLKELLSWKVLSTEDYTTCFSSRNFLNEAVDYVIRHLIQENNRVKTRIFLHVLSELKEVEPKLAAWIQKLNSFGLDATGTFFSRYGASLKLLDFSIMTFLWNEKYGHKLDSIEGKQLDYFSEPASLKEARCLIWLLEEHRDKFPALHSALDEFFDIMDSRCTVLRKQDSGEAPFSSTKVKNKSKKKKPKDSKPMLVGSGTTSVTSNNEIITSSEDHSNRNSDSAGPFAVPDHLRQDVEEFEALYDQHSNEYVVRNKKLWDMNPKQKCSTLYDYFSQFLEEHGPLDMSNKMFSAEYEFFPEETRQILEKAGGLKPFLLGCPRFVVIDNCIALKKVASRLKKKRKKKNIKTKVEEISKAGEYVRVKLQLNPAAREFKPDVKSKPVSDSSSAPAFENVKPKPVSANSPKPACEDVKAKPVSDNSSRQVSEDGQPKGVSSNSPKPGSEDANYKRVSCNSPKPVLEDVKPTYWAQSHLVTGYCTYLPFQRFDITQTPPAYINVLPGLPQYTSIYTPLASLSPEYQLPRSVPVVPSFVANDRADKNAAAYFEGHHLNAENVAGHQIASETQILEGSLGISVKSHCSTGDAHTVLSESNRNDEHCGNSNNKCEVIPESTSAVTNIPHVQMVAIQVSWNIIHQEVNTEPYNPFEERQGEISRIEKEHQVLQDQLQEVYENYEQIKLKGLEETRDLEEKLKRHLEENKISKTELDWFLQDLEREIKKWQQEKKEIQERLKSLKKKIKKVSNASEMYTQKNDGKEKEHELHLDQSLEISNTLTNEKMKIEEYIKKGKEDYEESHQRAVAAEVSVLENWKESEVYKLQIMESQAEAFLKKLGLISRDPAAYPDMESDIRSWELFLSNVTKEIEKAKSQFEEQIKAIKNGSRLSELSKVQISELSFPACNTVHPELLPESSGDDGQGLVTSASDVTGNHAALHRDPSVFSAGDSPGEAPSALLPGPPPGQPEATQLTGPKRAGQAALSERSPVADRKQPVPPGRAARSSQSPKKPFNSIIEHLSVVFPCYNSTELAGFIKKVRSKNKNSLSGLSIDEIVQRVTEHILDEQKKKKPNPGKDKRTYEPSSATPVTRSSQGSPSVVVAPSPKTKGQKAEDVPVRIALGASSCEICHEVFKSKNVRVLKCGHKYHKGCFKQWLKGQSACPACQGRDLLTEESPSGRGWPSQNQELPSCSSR

[5] = target: Myc-tagged wild-type full-length TTC3 (pCMV-Myc-TTC3) (human) (UniProt P53804)

How did the binding [1] turn out when “3xFlag-tagged full-length POLG (p3xFLAG-CMV10) (from UniProt P54098 1-1239)” was run?
Its binding is “binds”.

What about the binding [2] of the same substance?
Its binding is “binds”.

And the binding [3]?
The binding was “binds”.

What about the binding [4] of the same substance?
Its binding is “no binding”.

And the binding [5]?
Its binding is “binds”.
